Screen size: about 310,000 compounds; about 14,000 (4.5%) showed an effect of 50% or more. Effects have a minus sign here. This is one part of the list.
What follows are compounds tested against human ether-à-go-go-related gene (hERG) potassium channel (human, UniProt Q12809) (assay: primary screen, population patch clamp on CHO cells stably expressing hERG).
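Further: peak tail current of the secondary pulse compared with the same well before compound.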

Chain of human ether-à-go-go-related gene (hERG) potassium channel (Q12809 whole entry, looked up): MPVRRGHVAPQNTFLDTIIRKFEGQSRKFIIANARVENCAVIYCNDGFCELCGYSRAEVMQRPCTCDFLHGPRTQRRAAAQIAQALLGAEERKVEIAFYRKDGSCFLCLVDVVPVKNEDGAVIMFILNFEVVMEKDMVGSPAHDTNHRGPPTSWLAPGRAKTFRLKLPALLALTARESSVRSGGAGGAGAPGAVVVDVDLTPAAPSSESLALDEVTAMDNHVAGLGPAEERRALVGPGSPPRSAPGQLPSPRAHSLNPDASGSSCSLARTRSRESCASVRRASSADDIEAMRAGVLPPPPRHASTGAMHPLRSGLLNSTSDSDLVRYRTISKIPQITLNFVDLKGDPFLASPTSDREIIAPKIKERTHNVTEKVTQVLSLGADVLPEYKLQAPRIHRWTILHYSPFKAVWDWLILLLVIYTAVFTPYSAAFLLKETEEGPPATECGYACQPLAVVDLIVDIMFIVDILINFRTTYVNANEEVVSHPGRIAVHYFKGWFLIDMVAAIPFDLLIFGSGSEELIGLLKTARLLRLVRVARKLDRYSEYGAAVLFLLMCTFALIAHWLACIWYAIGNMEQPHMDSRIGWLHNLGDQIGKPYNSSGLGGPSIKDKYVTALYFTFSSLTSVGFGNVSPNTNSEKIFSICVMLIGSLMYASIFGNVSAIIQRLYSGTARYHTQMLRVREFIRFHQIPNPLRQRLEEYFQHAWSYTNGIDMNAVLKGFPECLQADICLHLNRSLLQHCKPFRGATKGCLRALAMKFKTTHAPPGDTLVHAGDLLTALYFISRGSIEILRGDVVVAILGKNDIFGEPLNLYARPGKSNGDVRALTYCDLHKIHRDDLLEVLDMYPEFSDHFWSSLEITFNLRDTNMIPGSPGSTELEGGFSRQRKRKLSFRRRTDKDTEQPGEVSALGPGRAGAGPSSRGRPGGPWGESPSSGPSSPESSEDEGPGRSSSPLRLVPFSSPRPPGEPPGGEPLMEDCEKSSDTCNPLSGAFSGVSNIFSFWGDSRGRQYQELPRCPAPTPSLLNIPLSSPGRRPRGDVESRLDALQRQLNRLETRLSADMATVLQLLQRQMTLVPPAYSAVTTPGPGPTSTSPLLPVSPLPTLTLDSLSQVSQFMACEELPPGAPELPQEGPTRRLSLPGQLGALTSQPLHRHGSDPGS

| Structure (SMILES) | hERG current change (%, negative = inhibition) at 10uM |
| --- | --- |
| COc1ccc(OC)c(NS(=O)(=O)c2ccc(Cl)nc2)c1 | 22.2% |
| Cc1ccc(/C(C#N)=C\c2cn(C)c3ccccc23)cc1 | -7.63% |
| COc1ccnc(Oc2ccc(F)cc2)c1C(=O)N/C=N/OCc1ccc(F)cc1Cl | 9.87% |
| O=[N+]([O-])c1ccc(N2CCN(C(=S)Nc3ccccc3)CC2)cc1 | -4.16% |
| CCCC(=O)Nc1nc2c(c(=O)[nH]1)CCCC2 | 10.2% |
| Cc1ccccc1Cn1cc(NS(=O)(=O)c2cn(C)nc2C)cn1 | 6.08% |
| COc1ccc(NS(=O)(=O)c2ccc(NC(=O)c3ccc(N(C)S(C)(=O)=O)cc3)cc2)c(OC)c1 | 19.6% |
| CS(=O)(=O)N(CC(=O)NCCSCc1c(F)cccc1Cl)c1ccc2c(c1)OCO2 | 5.26% |
| Cc1ccc(NC(=O)c2cc(=O)c3ccccc3o2)cc1S(=O)(=O)N1CCOCC1 | 0.642% |
| O=C(OCC(=O)N1c2ccccc2Sc2ccccc21)c1ccc[n+]([O-])c1 | -6.9% |
| CCc1ccc(NC(=O)C(C)Nc2ccc(S(=O)(=O)NC(C)=O)cc2)cc1 (centres unmarked) | 5.3% |
| N#CC(C#N)=C(N)Nc1cccc(Cl)c1 | 6.5% |
| N#C/C(=C(/O)CCl)c1nc2ccccc2[nH]1 | 1.37% |
| O=[N+]([O-])c1ccc(N2CCN(c3ccccc3O)CC2)cc1 | -0.173% |
| O=C(CCCc1ccccc1)Nc1cccc([N+](=O)[O-])c1 | 3.15% |
| Nc1nc(SCC(=O)NCC2CCCO2)[nH]c(=O)c1NC(=O)c1ccc(F)c(F)c1 (centres unmarked) | 22.1% |
| Cn1ncc2c(Nc3cccc(Cl)c3)nc(Nc3cccc(Cl)c3)nc21 | 16.5% |
| COc1ccc2cc3[n+](cc2c1OC)CCc1cc2c(cc1-3)OCO2.[Cl-] | -14.5% |
| CC(C)Oc1ccc(S(=O)(=O)N2CCOCC2)cc1NC(=O)c1cc([N+](=O)[O-])ccc1N1CCOCC1 | -45.7% |
| CCOc1ccccc1NC(=O)COC(=O)CC(C)(C)CC1=NS(=O)(=O)c2ccccc2N1 | -60.5% |
| CCC(C(=O)N1CCN(C(=O)c2ccco2)CC1)c1ccccc1 (centres unmarked) | 3.39% |
| CCC1CCCCN1CCCNC(=O)CN1C(=O)COc2ccccc21 (centres unmarked) | 8.04% |

| Structure (SMILES) | hERG current change (%, negative = inhibition) at 10uM |
| --- | --- |
| Cc1ccc(NC(=O)COc2ncnc3c(Cl)cc(Cl)cc23)cc1[N+](=O)[O-] | -7.52% |
| O=C(CN1C(=O)c2ccccc2S1(=O)=O)N1CCN(c2ccc(F)cc2)CC1 | -7.37% |
| COc1ccc(-n2c(SCC(=O)N3CCCCC3)nnc2-c2cccnc2)cc1 | 1.02% |
| CCOC(=O)c1cnc2c(-c3cccc(Br)c3)cnn2c1C | -0.606% |
| COc1ccc([C@H]2[C@H](C(=O)C(C)(C)C)N3N=Cc4ccccc4C3C23C(=O)OC(C)(C)OC3=O)cc1 (some centres unmarked) | 1.29% |
| CN1CCN(C(=O)C2=C[C@H](c3ccc(C(F)(F)F)cc3)C[C@H](OCc3ccc(CO)cc3)O2)CC1 | -40.4% |
| CC(=O)Nc1ccc(S(=O)(=O)Nc2cc([N+](=O)[O-])ccc2C)cc1 | 12.1% |
| O=c1c(-c2ccccc2)coc2c(CN3CCCC3)c(O)ccc12 | -7.29% |
| Cc1ccc(C)c(CN2CCC(CNC(=O)Nc3ccc(C)c(F)c3)CC2)c1 | -27.5% |
| Cc1cc(=O)n2nc(N3CCCC3C(=O)Nc3cccc(Cl)c3C)sc2n1 (centres unmarked) | -6.56% |
| COc1ccc(CCn2nnnc2C(C(C)C)N2CCC(C(N)=O)CC2)cc1OC (centres unmarked) | -3.69% |
| CCC(=O)c1ccc(OCC(=O)OCC(=O)c2cc(C)n(C3CC3)c2C)cc1 | 3.73% |
| O=C(NC1CCCCC1)C1COc2ccccc2O1 (centres unmarked) | -7.19% |
| COCCCNC(=O)COC(=O)c1ccc(-c2nc3ccccc3s2)s1 | -5.58% |
| COc1ccccc1-n1cc(CN2CCN(CC=C(C)C)C(CCO)C2)cn1 (centres unmarked) | -13.7% |
| COc1ccc(CC(=O)N/N=C(\C)CC(=O)Nc2ccc(N(C)C)cc2)cc1OC | 21.9% |
| COc1ccc2oc(C(=O)OCC(=O)N(CCC#N)c3ccccc3)c(C)c2c1 | 7.38% |
| O=C(CCNS(=O)(=O)c1ccc(Br)cc1)NCCc1ccc(Cl)cc1 | -4.6% |
| O=C/C(=C\Nc1ccc(Br)cc1)c1nc2ccccc2o1 | 20.6% |
| Cc1cccc(-n2c(O)c(/C=C3/C(c4ccccc4)=Nc4ccccc43)c(=O)[nH]c2=O)c1 | 1.39% |
| Cc1ccc(C(=O)N2CCN(Cc3ccccc3)CC2)o1 | -14.6% |
| CCOC(=O)CSc1nnc(-c2ccco2)n1-c1ccc(C)cc1 | -61.9% |

| Structure (SMILES) | hERG current change (%, negative = inhibition) at 10uM |
| --- | --- |
| COc1ccc(C2N(C(=O)N3CCOCC3)CCN2S(=O)(=O)c2ccc(C)cc2)cc1 (centres unmarked) | 10.8% |
| Cc1cccc(Oc2cc([N+](=O)[O-])cc3c2C(=O)Nc2ccccc2O3)c1 | -4.03% |
| CC(C)n1nnc(-c2ccc(OCc3ccccc3F)cc2)n1 | 13.9% |
| CC(CC(=O)O)CC(=O)N1CCN(S(=O)(=O)c2cccs2)CC1 (centres unmarked) | -23.9% |
| Cc1ccc2nc3sc(C(=O)NCc4ccco4)c(N)c3cc2c1 | 1.38% |
| CCC(C)NC(=O)COC(=O)c1ccccc1OCC(=O)Nc1ccc(Br)cc1 (centres unmarked) | 6.17% |
| CCOP(=O)(OCC)C(NC(=O)c1ccccc1C)C(Cl)(Cl)Cl (centres unmarked) | 6.98% |
| CSc1ccc(CN2CCCC(CO)(Cc3ccccc3)C2)cc1 (centres unmarked) | -60.7% |
| COc1ccc(C(CC(=O)N2CCCCC2)C(C)C)cc1 (centres unmarked) | 15.8% |
| Cc1ccc(NC(=O)COC(=O)C2CCC(=O)N2)c([N+](=O)[O-])c1 (centres unmarked) | -0.885% |
| O=C(NC1CCCc2ccccc21)C1CCCC1 (centres unmarked) | 21.4% |
| Cc1ccc(-n2nnnc2SCn2nnc3ccccc3c2=O)c(C)c1 | 0.882% |
| CC(C)COP(=O)(c1ccc(N(C)C)cc1)C(O)c1ccc(Br)cc1 (centres unmarked) | 8.63% |
| Cc1nn(-c2ccccc2)c(C)c1/C=N/N1CCN(c2ccccn2)CC1 | 8.89% |
| Cc1c(C(=O)c2ccc(Cl)c(Cl)c2)cnc2cc3c(cc12)OCO3 | 2.02% |
| O=C(COc1cccnc1[N+](=O)[O-])N1CCc2ccccc21 | 9.5% |
| C=CCn1c(SCC(=O)Nc2ccc3c(c2)OCCO3)nnc1-c1ccccn1 | -28.3% |
| CC(=O)N(Cc1ccccc1)c1ccc(C(=O)O)cc1 | 2.19% |
| CC1(C)CC(=O)C2=C(C1)N(c1cccc(O)c1)C1=C(C2)C(=O)CC(C)(C)C1 | -9.18% |
| CC(=O)N1CCc2cc(S(=O)(=O)NC(C(=O)N3CCN(c4ccccc4F)CC3)C(C)C)ccc21 (centres unmarked) | -1.28% |
| Cc1ccc(C(=O)Nc2ccccc2Oc2ccccc2)cc1[N+](=O)[O-] | -9.22% |
| O=C(Cc1ccccc1)NCC(=O)N/N=C/c1ccc([N+](=O)[O-])s1 | 2.04% |

| Structure (SMILES) | hERG current change (%, negative = inhibition) at 10uM |
| --- | --- |
| Cn1c(=O)c(C(=O)CN2CCOCC2)c(N)n(Cc2ccccc2)c1=O | -13.2% |
| CCCSC1=N/C(=C\C=C\c2ccco2)C(=O)S1 | 3.74% |
| O=C1/C(=C\c2cccnc2)Sc2ccccc21 | 12.3% |
| CCOC(=O)CCNc1n[nH]c(=O)[nH]c1=O | 13.2% |
| O=C(NCCc1ccccc1)c1ccccc1C(=O)NCCc1ccccc1 | 11.4% |
| O=P(O)(Oc1ccccc1)OC(c1ccccc1)C(F)(F)C(F)(F)F (centres unmarked) | 27.3% |
| COc1cccc(C(=O)N2CCN(Cc3cn[nH]c3-c3ccc(F)cc3F)CC2)c1 | -10.4% |
| O=C(Nn1cnnc1)c1csc2ccccc12 | 0.366% |
| N/C(=N\OC(=O)c1ccco1)c1cccc([N+](=O)[O-])c1 | 14.9% |
| O=C(Nc1c2c(nn1-c1ccccc1)CS(=O)(=O)C2)C1CCCC1 | -0.437% |
| CCn1cc(CN2CCC(n3nccc3NC(=O)c3cccc(F)c3)CC2)cn1 | -6.71% |
| C=Cn1ccnc1P(=S)(c1ccccc1)c1nccn1C=C | 29.1% |
| CS(=O)(=O)N(CC(=O)N1CCOCC1)Cc1ccccc1 | -9.46% |
| O=c1[nH]c2ccc(S(=O)(=O)Nc3ccc(Cl)cc3)cc2o1 | 22.9% |
| O=C1C2CCCN2C(c2ccncc2)N1c1ccc(Cl)c(Cl)c1 (centres unmarked) | -33.3% |
| NC(=O)CC(NC(=O)Cc1ccc(Br)cc1)c1ccc(N2CCC(Cc3ccccc3)CC2)c([N+](=O)[O-])c1 (centres unmarked) | 6.04% |
| COC(=O)c1c(NC(=O)Cc2cccs2)sc(C(=O)NC2CCCCC2)c1C | 6.98% |
| Cc1ccccc1Cn1nnc(-c2ccc3c(c2)OCO3)n1 | 4.96% |
| O=c1c(-c2ccc(O)cc2O)coc2cc(O)cc(O)c12 | -4.59% |
| Cc1ccc(CN(C)C(=O)c2cccc(S(=O)(=O)N3CCN(Cc4ccccc4)CC3)c2)o1 | -31.5% |

Reference: publication PMC4336329 (PLoS ONE, 2015)
